Hit rate of the full screen: of about 310,000 compounds, about 2,200 (0.71%) showed an effect of 50% or more. Effects have a minus sign here. Some of the results follow.

The test deals with human ether-à-go-go-related gene (hERG) potassium channel (human, UniProt Q12809). In words: primary screen, population patch clamp on CHO cells stably expressing hERG.
human ether-à-go-go-related gene (hERG) potassium channel, sequence (Q12809 whole entry, looked up): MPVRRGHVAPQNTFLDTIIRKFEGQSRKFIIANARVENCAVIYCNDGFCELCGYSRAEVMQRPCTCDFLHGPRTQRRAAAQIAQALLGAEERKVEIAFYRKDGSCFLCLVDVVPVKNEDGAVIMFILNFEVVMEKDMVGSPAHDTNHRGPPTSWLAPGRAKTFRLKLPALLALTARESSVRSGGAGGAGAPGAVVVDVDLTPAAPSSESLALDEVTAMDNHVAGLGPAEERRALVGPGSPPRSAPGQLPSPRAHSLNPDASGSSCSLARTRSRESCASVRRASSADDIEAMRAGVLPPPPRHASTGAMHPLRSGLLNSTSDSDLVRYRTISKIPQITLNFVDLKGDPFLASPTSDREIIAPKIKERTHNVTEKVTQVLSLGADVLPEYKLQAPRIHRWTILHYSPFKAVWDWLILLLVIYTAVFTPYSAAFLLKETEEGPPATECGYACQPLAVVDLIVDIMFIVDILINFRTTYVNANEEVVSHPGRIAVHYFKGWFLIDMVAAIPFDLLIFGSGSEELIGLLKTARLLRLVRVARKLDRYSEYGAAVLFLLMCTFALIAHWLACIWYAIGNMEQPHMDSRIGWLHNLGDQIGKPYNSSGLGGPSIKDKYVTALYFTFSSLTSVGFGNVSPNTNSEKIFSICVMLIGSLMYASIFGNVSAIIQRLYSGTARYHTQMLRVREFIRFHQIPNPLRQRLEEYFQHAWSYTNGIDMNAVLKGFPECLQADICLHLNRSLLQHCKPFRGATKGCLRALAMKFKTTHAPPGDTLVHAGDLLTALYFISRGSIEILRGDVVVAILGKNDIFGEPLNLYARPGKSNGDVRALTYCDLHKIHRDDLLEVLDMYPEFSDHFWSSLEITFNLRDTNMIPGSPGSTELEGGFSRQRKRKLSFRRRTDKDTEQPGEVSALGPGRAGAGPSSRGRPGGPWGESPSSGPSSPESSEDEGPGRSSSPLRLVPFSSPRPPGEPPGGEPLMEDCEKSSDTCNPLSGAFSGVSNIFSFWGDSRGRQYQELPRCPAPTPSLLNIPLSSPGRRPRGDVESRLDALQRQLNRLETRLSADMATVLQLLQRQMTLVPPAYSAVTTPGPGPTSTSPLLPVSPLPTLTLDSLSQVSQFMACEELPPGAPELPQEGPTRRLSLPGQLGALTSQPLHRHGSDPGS
As for `CC(=O)OC1(c2ccccc2)CCN(C)C(C)C1C.Cl` (stereo not drawn), the “hERG current change (%, negative = inhibition) at 1uM” value was 5.62%.

As for `CCCn1c(-c2cc(OC)c(OC)c(OC)c2)nc2nc3ccccc3nc21`, the “hERG current change (%, negative = inhibition) at 1uM” value is listed as -7.87%.

As to `CCOC(=O)c1c(C)oc2c(CN3CCN(C)CC3)c(Br)c(OC)c(O)c12.Cl`, the “hERG current change (%, negative = inhibition) at 1uM” value is on record as -4.01%.

For `C/C(=N\NC(=O)c1ccc(Br)cc1)c1cccnc1`, the “hERG current change (%, negative = inhibition) at 1uM” value worked out at 15%.

In the case of `CC(C)CN1C(=O)c2ccccc2C1(O)Cc1ccccc1` (stereo not drawn), the “hERG current change (%, negative = inhibition) at 1uM” value came to 12.5%.

For the molecule `CC12C(=O)N(c3ccccc3)C(=O)C1C(c1ccccc1)N1CCCN12` (stereo not drawn), the “hERG current change (%, negative = inhibition) at 1uM” value is recorded as 14.6%.

Regarding `CCOC(=O)c1sc(/N=C/c2c(C)[nH]n(-c3ccccc3)c2=O)c(C#N)c1C`, the “hERG current change (%, negative = inhibition) at 1uM” value is -1.18%.

As to `NC(=O)CSc1nc2cc([N+](=O)[O-])ccc2n1-c1cccc(C(F)(F)F)c1`, the “hERG current change (%, negative = inhibition) at 1uM” value is on record as -22%.

Regarding `C#CCOCCOCCOCCNc1nc(N2CCN(C(=O)[C@H](Cc3ccc(O)cc3)n3cc([C@@H](N)CC(C)C)nn3)CC2)nc(N2CCN(C(=O)[C@H](Cc3ccc(O)cc3)n3cc([C@@H](N)CC(C)C)nn3)CC2)n1.Cl`, the “hERG current change (%, negative = inhibition) at 1uM” value is recorded as -1.2%.

As to `Cc1cccc(NC(=S)NC(C)CCc2ccccc2)c1` (stereo not drawn), the “hERG current change (%, negative = inhibition) at 1uM” value was 9.48%.

In the case of `CCOC(=O)CNC=C(C(=O)OCC)C(=O)OCC`, the “hERG current change (%, negative = inhibition) at 1uM” value is 3.34%.

Take `O=C(C(c1ccccc1)c1ccccc1)N1CCN(CCN2C(=O)c3cccc4cccc(c34)C2=O)CC1`: the “hERG current change (%, negative = inhibition) at 1uM” value came out at 6.84%.

Take `O=C(Nc1cccnc1)c1ccc(Br)c(S(=O)(=O)N2CCCC2)c1`: the “hERG current change (%, negative = inhibition) at 1uM” value turned out to be 11.9%.

In the case of `COc1ccc(Sc2cnn(-c3ccccc3)c(=O)c2Cl)cc1`, the “hERG current change (%, negative = inhibition) at 1uM” value stood at 7.29%.

As for `CCCOc1ccc(C2=NNC(c3cccs3)=Nc3ccc(OC)cc32)cc1`, the “hERG current change (%, negative = inhibition) at 1uM” value was 14.4%.

`COc1cc(NC(=O)c2cc3cccc(OC)c3o2)cc(C(=O)Nc2cccc(C(F)(F)F)c2)c1`: the “hERG current change (%, negative = inhibition) at 1uM” value is given as 14.6%.

`CC(=O)Nc1ccc(C(=O)N/N=C/C2CC3C=CC2C3)cc1` (stereo not drawn): the “hERG current change (%, negative = inhibition) at 1uM” value worked out at 12.5%.

Turning to `O=C(N/N=C/c1ccc(OC(=O)c2cccs2)cc1)c1ccc(F)cc1`, the “hERG current change (%, negative = inhibition) at 1uM” value worked out at 8.59%.

For `O=C(c1cccc(S(=O)(=O)Nc2ccc(Br)cc2)c1)N1CCC1`, the “hERG current change (%, negative = inhibition) at 1uM” value came to 6.85%.

For the molecule `CCN(CC)S(=O)(=O)c1ccc(C)c(C)c1`, the “hERG current change (%, negative = inhibition) at 1uM” value came to 8.53%.

For the molecule `CCOP(=O)(OCC)C(NC(=O)Nc1ccc(Cl)c(Cl)c1)C(N)=O` (stereo not drawn), the “hERG current change (%, negative = inhibition) at 1uM” value came out at 8.2%.

Turning to `Cc1ccc(N(CC(=O)NCCc2ccccc2)C(=O)c2csnn2)cc1`, the “hERG current change (%, negative = inhibition) at 1uM” value is listed as 7.46%.

Take `Cc1cccc(N2CCN(C(=O)c3ccc(CS(=O)Cc4ccc(Cl)cc4)o3)CC2)c1C` (stereo not drawn): the “hERG current change (%, negative = inhibition) at 1uM” value came to 1.68%.

With `CCNC(=O)Cc1ccc(NS(=O)(=O)c2ccc(F)cc2)cc1`, the “hERG current change (%, negative = inhibition) at 1uM” value is 8.41%.

For `Cc1ccccc1CNC(=O)CCc1ccccc1`, the “hERG current change (%, negative = inhibition) at 1uM” value is given as 13.8%.

In the case of `CC(C)n1c(O)c(N=Nc2ccccn2)c2ccccc21`, the “hERG current change (%, negative = inhibition) at 1uM” value turned out to be 5.72%.

`Cc1[nH]n(-c2ccc(Cl)cc2)c(=O)c1N=Nc1cccnc1`: the “hERG current change (%, negative = inhibition) at 1uM” value is -1.8%.

In the case of `Cc1cc(C)c(C)c(C(=O)COC(=O)CNC(=O)CNC(=O)c2ccco2)c1C`, the “hERG current change (%, negative = inhibition) at 1uM” value is 12.5%.

As to `COc1ccc(CCC(=O)Nc2ccc3c(c2)OCO3)cc1`, the “hERG current change (%, negative = inhibition) at 1uM” value is reported as 13.2%.

On to `COc1ccc(/C=N/NC(=S)N[C@H]2CC3CCC2C3)cc1` (stereo partly drawn), for which the “hERG current change (%, negative = inhibition) at 1uM” value worked out at 9.42%.

For `CC(c1ccccc1C(O)c1ccccc1)N(C)C.Cl` (stereo not drawn), the “hERG current change (%, negative = inhibition) at 1uM” value was 3.62%.

As for `CC(=O)c1ccc(C(=O)N2CCCC(N3CCN(c4ccc(F)cc4)CC3)C2)s1` (stereo not drawn), the “hERG current change (%, negative = inhibition) at 1uM” value is on record as -51.3%.

`O=C(NCCNc1ccc([N+](=O)[O-])cc1)c1cccc(Br)c1`: the “hERG current change (%, negative = inhibition) at 1uM” value is on record as 6.77%.

As to `CCN1CC=C2C(C#N)=C(N)C(C#N)(C#N)C(c3cc(Cl)ccc3Cl)C2C1` (stereo not drawn), the “hERG current change (%, negative = inhibition) at 1uM” value is recorded as -2.39%.

Take `COc1ccc(S(=O)(=O)N2CCN(C)CC2)cc1Br`: the “hERG current change (%, negative = inhibition) at 1uM” value was found to be 9.06%.

For `CCOc1ccc(CCNC(=O)C2CCN(c3nnc(-n4cccc4)s3)CC2)cc1OCC`, the “hERG current change (%, negative = inhibition) at 1uM” value is 2.88%.

As for `O=C(CSc1nnc2c3ccccc3c3ccccc3c2n1)Nc1ccccc1F`, the “hERG current change (%, negative = inhibition) at 1uM” value turned out to be 10.6%.

As to `CCCC(=O)Nc1ccc(-c2ccc(NC(=O)CCC)cc2)cc1`, the “hERG current change (%, negative = inhibition) at 1uM” value was 15.1%.

In the case of `Br.O=C(CN1CCCCC1CO)c1ccc(OC(F)F)cc1` (stereo not drawn), the “hERG current change (%, negative = inhibition) at 1uM” value is recorded as -21.3%.

With `COc1ccc(C(O)P(=O)(OC(C)C)OC(C)C)c(OC)c1` (stereo not drawn), the “hERG current change (%, negative = inhibition) at 1uM” value is recorded as 11.5%.

For `C=CCNC(=O)COc1ccc(Br)cc1Cl`, the “hERG current change (%, negative = inhibition) at 1uM” value is reported as -12.7%.

For the molecule `CC(=O)Nc1ccc(/C=N/NC(=S)NC(C)C)cc1`, the “hERG current change (%, negative = inhibition) at 1uM” value is 11.7%.

In the case of `CC1CCN(S(=O)(=O)c2nnc(NC(=O)COc3ccccc3)s2)CC1`, the “hERG current change (%, negative = inhibition) at 1uM” value is 14.8%.

Turning to `CCC(=O)N(C)CCc1cc2c(c(OC)c1/C=N/NS(=O)(=O)c1ccc(C)cc1)OCO2`, the “hERG current change (%, negative = inhibition) at 1uM” value is recorded as -2.41%.

As for `CCOc1ccccc1-c1noc(CCC(=O)NC2CCCCC2)n1`, the “hERG current change (%, negative = inhibition) at 1uM” value is listed as 16.8%.

For the origin of these results see paper PMC4336329 (PLoS ONE, 2015).
